Drawing on paper PMC12691697, this text covers binding for four molecules.

The target of test [1] is T1, FLAG-tagged GBP5 (guanylate-binding protein 5) (UniProt Q96PP8).
T1 sequence: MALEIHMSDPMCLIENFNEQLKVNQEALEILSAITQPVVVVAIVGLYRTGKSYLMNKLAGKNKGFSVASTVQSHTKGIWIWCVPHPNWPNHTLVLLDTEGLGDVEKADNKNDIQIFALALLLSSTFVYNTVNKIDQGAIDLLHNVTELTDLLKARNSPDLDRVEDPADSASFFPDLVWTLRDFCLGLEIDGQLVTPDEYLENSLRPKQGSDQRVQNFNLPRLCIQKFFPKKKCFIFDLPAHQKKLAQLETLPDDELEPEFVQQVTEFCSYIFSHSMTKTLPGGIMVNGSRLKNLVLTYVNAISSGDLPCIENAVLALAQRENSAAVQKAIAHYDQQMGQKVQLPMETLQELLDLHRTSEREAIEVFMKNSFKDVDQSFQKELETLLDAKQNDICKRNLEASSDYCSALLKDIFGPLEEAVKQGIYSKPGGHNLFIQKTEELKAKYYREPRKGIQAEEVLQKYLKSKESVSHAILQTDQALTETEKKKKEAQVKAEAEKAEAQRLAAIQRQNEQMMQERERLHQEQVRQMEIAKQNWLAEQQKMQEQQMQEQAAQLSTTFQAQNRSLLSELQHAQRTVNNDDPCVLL
Kind of test: co-IP; HEK 293T cells co-transfected 48 h with FLAG-GBP5 constructs and MYC-tagged OST subunits; lysates immunoprecipitated with anti-FLAG on Dynabeads Protein G overnight at 4°C; washes include Pierce IP Lysis Buffer with 500 mM NaCl; anti-MYC blot.

The target in test [2] is T2, FLAG-GBP5 mutant M5 (E417A/K421A) (UniProt Q96PP8).
T2 sequence: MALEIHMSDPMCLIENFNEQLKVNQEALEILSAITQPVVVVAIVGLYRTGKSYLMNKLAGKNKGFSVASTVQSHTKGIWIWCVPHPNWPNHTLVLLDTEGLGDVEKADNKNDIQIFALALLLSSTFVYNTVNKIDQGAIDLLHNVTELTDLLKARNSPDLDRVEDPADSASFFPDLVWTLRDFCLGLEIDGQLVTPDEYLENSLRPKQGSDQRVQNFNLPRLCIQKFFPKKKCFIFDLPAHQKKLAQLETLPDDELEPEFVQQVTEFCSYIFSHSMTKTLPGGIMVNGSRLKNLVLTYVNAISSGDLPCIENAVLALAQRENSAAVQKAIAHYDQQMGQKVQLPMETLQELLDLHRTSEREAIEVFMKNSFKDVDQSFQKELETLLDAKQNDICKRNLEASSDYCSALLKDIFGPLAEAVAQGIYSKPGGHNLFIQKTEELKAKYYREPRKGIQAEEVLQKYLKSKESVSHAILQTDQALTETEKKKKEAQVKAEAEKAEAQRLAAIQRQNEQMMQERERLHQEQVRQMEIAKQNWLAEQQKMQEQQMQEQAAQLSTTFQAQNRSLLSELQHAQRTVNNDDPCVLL
The test is described as above.

In test [3] the target is T1, FLAG-tagged GBP5 (guanylate-binding protein 5). Nature of the test: co-IP; HEK 293T cells transfected 48 h with FLAG-GBP5 or FLAG-GBP5-C583A; anti-FLAG immunoprecipitation; washes include 500 mM NaCl; blots for endogenous RPN2, RPN1, DDOST.
Test [4] deals with T3, FLAG-tagged GBP5-C583A (UniProt Q96PP8).
T3 sequence: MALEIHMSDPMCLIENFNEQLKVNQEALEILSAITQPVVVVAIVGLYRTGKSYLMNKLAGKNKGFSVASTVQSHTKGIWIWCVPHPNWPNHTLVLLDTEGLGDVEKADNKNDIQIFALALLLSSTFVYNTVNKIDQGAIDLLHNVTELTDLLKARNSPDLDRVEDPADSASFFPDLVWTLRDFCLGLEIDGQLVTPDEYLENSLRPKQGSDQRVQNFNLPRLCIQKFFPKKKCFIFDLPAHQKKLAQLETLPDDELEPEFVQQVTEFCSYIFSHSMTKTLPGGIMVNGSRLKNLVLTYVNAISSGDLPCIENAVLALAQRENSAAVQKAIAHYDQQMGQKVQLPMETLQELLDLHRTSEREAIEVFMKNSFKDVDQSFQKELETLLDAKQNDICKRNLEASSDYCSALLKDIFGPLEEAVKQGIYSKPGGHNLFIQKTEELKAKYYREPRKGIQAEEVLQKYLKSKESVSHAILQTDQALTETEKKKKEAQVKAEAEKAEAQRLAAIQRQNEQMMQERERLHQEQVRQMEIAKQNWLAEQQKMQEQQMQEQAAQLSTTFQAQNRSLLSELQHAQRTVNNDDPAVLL
The test is described as above.

Test [5] addresses T4, endogenous GBP5 (induced by IFN-γ) (human (endogenous in HEK 293T)) (UniProt Q96PP8).
T4 sequence: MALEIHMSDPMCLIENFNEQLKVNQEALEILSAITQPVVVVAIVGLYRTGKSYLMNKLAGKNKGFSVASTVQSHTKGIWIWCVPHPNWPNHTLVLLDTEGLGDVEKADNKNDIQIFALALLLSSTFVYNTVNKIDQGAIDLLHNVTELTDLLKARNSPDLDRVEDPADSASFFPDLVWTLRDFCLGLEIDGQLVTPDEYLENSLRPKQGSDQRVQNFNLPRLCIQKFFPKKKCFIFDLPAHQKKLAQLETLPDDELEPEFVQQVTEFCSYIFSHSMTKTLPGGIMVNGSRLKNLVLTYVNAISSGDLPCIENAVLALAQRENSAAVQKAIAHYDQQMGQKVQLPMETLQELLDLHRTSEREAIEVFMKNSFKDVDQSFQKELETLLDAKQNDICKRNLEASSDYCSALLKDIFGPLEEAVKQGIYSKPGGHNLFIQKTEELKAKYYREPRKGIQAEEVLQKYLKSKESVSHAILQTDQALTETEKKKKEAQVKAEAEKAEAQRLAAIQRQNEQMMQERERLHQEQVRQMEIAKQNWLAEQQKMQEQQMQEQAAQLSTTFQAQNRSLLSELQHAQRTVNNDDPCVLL
Nature of the test: co-IP; HEK 293T cells treated with IFN-γ to induce GBP5; endogenous GBP5 immunoprecipitated with an anti-GBP5 antibody; blots for RPN1, RPN2, DDOST.

These are yes or no findings as the source states them, for the method shown. In cells and extracts the contact can be indirect. Some results given as binding are weak or reduced against the parent protein; the word gives no strength. For some of these results: Tags and fused reporters may be left off the sequences shown.

B1: MYC-tagged DDOST (protein, UniProt P39656 43-456)
chain: SGPRTLVLLDNLNVRETHSLFFRSLKDRGFELTFKTADDPSLSLIKYGEFLYDNLIIFSPSVEDFGGNINVETISAFIDGGGSVLVAASSDIGDPLRELGSECGIEFDEEKTAVIDHHNYDISDLGQHTLIVADTENLLKAPTIVGKSSLNPILFRGVGMVADPDNPLVLDILTGSSTSYSFFPDKPITQYPHAVGKNTLLIAGLQARNNARVIFSGSLDFFSDSFFNSAVQKAAPGSQRYSQTGNYELAVALSRWVFKEEGVLRVGPVSHHRVGETAPPNAYTVTDLVEYSIVIQQLSNGKWVPFDGDDIQLEFVRIDPFVRTFLKKKGGKYSVQFKLPDVYGVFQFKVDYNRLGYTHLYSSTQVSVRPLQHTQYERFIPSAYPYYASAFSMMLGLFIFSIVFLHMKEKEKSD
As for B1, the binding entry is “binds” in test [1] and “no binding” in test [2].

B2: endogenous DDOST (protein, UniProt P39656 43-456)
chain: SGPRTLVLLDNLNVRETHSLFFRSLKDRGFELTFKTADDPSLSLIKYGEFLYDNLIIFSPSVEDFGGNINVETISAFIDGGGSVLVAASSDIGDPLRELGSECGIEFDEEKTAVIDHHNYDISDLGQHTLIVADTENLLKAPTIVGKSSLNPILFRGVGMVADPDNPLVLDILTGSSTSYSFFPDKPITQYPHAVGKNTLLIAGLQARNNARVIFSGSLDFFSDSFFNSAVQKAAPGSQRYSQTGNYELAVALSRWVFKEEGVLRVGPVSHHRVGETAPPNAYTVTDLVEYSIVIQQLSNGKWVPFDGDDIQLEFVRIDPFVRTFLKKKGGKYSVQFKLPDVYGVFQFKVDYNRLGYTHLYSSTQVSVRPLQHTQYERFIPSAYPYYASAFSMMLGLFIFSIVFLHMKEKEKSD
On to B2, for which the binding entry was “binds” in test [3], “no binding” in test [4] and “binds” in test [5].

B3: MYC-tagged RPN1 (protein, UniProt P04843 24-607)
chain: ASSEAPPLINEDVKRTVDLSSHLAKVTAEVVLAHLGGGSTSRATSFLLALEPELEARLAHLGVQVKGEDEEENNLEVRETKIKGKSGRFFTVKLPVALDPGAKISVIVETVYTHVLHPYPTQITQSEKQFVVFEGNHYFYSPYPTKTQTMRVKLASRNVESYTKLGNPTRSEDLLDYGPFRDVPAYSQDTFKVHYENNSPFLTITSMTRVIEVSHWGNIAVEENVDLKHTGAVLKGPFSRYDYQRQPDSGISSIRSFKTILPAAAQDVYYRDEIGNVSTSHLLILDDSVEMEIRPRFPLFGGWKTHYIVGYNLPSYEYLYNLGDQYALKMRFVDHVFDEQVIDSLTVKIILPEGAKNIEIDSPYEISRAPDELHYTYLDTFGRPVIVAYKKNLVEQHIQDIVVHYTFNKVLMLQEPLLVVAAFYILFFTVIIYVRLDFSITKDPAAEARMKVACITEQVLTLVNKRIGLYRHFDETVNRYKQSRDISTLNSGKKSLETEHKALTSEIALLQSRLKTEGSDLCDRVSEMQKLDAQVKELVLKSAVEAERLVAGKLKKDTYIENEKLISGKRQELVTKIDHILDAL
As for B3, the binding entry in test [1] is reported as “binds”; in test [2], “no binding”.

B4: endogenous RPN1 (protein, UniProt P04843 24-607)
chain: ASSEAPPLINEDVKRTVDLSSHLAKVTAEVVLAHLGGGSTSRATSFLLALEPELEARLAHLGVQVKGEDEEENNLEVRETKIKGKSGRFFTVKLPVALDPGAKISVIVETVYTHVLHPYPTQITQSEKQFVVFEGNHYFYSPYPTKTQTMRVKLASRNVESYTKLGNPTRSEDLLDYGPFRDVPAYSQDTFKVHYENNSPFLTITSMTRVIEVSHWGNIAVEENVDLKHTGAVLKGPFSRYDYQRQPDSGISSIRSFKTILPAAAQDVYYRDEIGNVSTSHLLILDDSVEMEIRPRFPLFGGWKTHYIVGYNLPSYEYLYNLGDQYALKMRFVDHVFDEQVIDSLTVKIILPEGAKNIEIDSPYEISRAPDELHYTYLDTFGRPVIVAYKKNLVEQHIQDIVVHYTFNKVLMLQEPLLVVAAFYILFFTVIIYVRLDFSITKDPAAEARMKVACITEQVLTLVNKRIGLYRHFDETVNRYKQSRDISTLNSGKKSLETEHKALTSEIALLQSRLKTEGSDLCDRVSEMQKLDAQVKELVLKSAVEAERLVAGKLKKDTYIENEKLISGKRQELVTKIDHILDAL
B4: the binding entry in test [3] is on record as “binds”; in test [4] it was “no binding”; in test [5], “binds”.
